{"source": "the supplement of paper PMC8728848", "test_in_all_cases": "glycan array binding signal (z-score within array); higher = stronger binding", "conditions_in_all_cases": "glycan notation: IUPAC condensed, linker removed", "key": {"Fuc(a1-2)Gal": {"biological_target": "Fuc(a1-2)Gal", "method_in_brief": "(§1)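 Negative Z-scores can be read as non-binding. The Z-score is calculated within each array and then averaged across arrays of one protein sequence at different concentrations or buffers and across linkers. Arrays, 3228 in all, were curated from the Consortium for Functional Glycomics database and kept only where the protein sequence was available.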"}, "Fuc(a1-2)Gal(b1-3)GalNAc": {"biological_target": "Fuc(a1-2)Gal(b1-3)GalNAc", "method_in_brief": "as §1"}, "[1]": {"biological_target": "Fuc(a1-2)Gal(b1-3)GalNAc(a1-3)[Fuc(a1-2)]Gal(b1-4)Glc", "method_in_brief": "as §1"}, "[2]": {"biological_target": "Fuc(a1-2)Gal(b1-3)GalNAc(a1-3)[Fuc(a1-2)]Gal(b1-4)GlcNAc", "method_in_brief": "as §1"}, "[3]": {"biological_target": "Fuc(a1-2)Gal(b1-3)GalNAc(b1-3)Gal", "method_in_brief": "as §1"}, "[4]": {"biological_target": "Fuc(a1-2)Gal(b1-3)GalNAc(b1-3)Gal(a1-4)Gal(b1-4)Glc", "method_in_brief": "as §1"}, "[5]": {"biological_target": "Fuc(a1-2)Gal(b1-3)GalNAc(b1-4)[Neu5Ac(a2-3)]Gal(b1-4)Glc", "method_in_brief": "as §1"}, "Fuc(a1-2)Gal(b1-3)GlcNAc": {"biological_target": "Fuc(a1-2)Gal(b1-3)GlcNAc", "method_in_brief": "as §1"}, "[6]": {"biological_target": "Fuc(a1-2)Gal(b1-3)GlcNAc(b1-2)Man(a1-3)[Fuc(a1-2)Gal(b1-3)GlcNAc(b1-2)Man(a1-6)]Man(b1-4)GlcNAc(b1-4)GlcNAc", "method_in_brief": "as §1"}, "[7]": {"biological_target": "Fuc(a1-2)Gal(b1-3)GlcNAc(b1-2)Man(a1-3)[Fuc(a1-2)Gal(b1-3)GlcNAc(b1-2)Man(a1-6)]Man(b1-4)GlcNAc(b1-4)[Fuc(a1-6)]GlcNAc", "method_in_brief": "as §1"}, "[8]": {"biological_target": "Fuc(a1-2)Gal(b1-3)GlcNAc(b1-3)Gal(b1-4)Glc", "method_in_brief": "as §1"}, "[9]": {"biological_target": "Fuc(a1-2)Gal(b1-3)GlcNAc(b1-3)GalNAc", "method_in_brief": "as §1"}, "[10]": {"biological_target": "Fuc(a1-2)Gal(b1-3)GlcNAc(b1-3)[Fuc(a1-2)Gal(b1-3)GlcNAc(b1-6)]GalNAc", "method_in_brief": "as §1"}, "[11]": {"biological_target": "Fuc(a1-2)Gal(b1-3)GlcNAc(b1-3)[Gal(b1-4)GlcNAc(b1-6)]Gal(b1-4)Glc", "method_in_brief": "as §1"}, "[12]": {"biological_target": "Fuc(a1-2)Gal(b1-3)GlcNAc(b1-3)[Neu5Ac(a2-6)Gal(b1-4)GlcNAc(b1-6)]Gal(b1-4)Glc", "method_in_brief": "as §1"}, "[13]": {"biological_target": "Fuc(a1-2)Gal(b1-3)GlcNAc6S", "method_in_brief": "as §1"}, "[14]": {"biological_target": "Fuc(a1-2)Gal(b1-3)[Fuc(a1-4)]GlcNAc", "method_in_brief": "as §1"}, "[15]": {"biological_target": "Fuc(a1-2)Gal(b1-3)[Fuc(a1-4)]GlcNAc(b1-2)Man(a1-3)[Fuc(a1-2)Gal(b1-3)[Fuc(a1-4)]GlcNAc(b1-2)Man(a1-3)]Man(b1-4)GlcNAc(b1-4)GlcNAc", "method_in_brief": "as §1"}, "[16]": {"biological_target": "Fuc(a1-2)Gal(b1-3)[Fuc(a1-4)]GlcNAc(b1-2)Man(a1-3)[Fuc(a1-2)Gal(b1-3)[Fuc(a1-4)]GlcNAc(b1-2)Man(a1-6)]Man(b1-4)GlcNAc(b1-4)[Fuc(a1-6)]GlcNAc(b1-4)[Fuc(a1-6)]GlcNAc", "method_in_brief": "as §1"}, "[17]": {"biological_target": "Fuc(a1-2)Gal(b1-3)[Fuc(a1-4)]GlcNAc(b1-3)[Fuc(a1-3)[Gal(b1-4)]GlcNAc(b1-6)]Gal(b1-4)Glc", "method_in_brief": "as §1"}, "[18]": {"biological_target": "Fuc(a1-2)Gal(b1-3)[Fuc(a1-4)]GlcNAc(b1-3)[Gal(b1-4)GlcNAc(b1-6)]Gal(b1-4)Glc", "method_in_brief": "as §1"}, "[19]": {"biological_target": "Fuc(a1-2)Gal(b1-4)Fuc(a1-3)]GlcNAc(b1-2)Man(a1-3)[Fuc(a1-2)Gal(b1-4)[Fuc(a1-3)]GlcNAc(b1-2)Man(a1-6)]Man(b1-4)GlcNAc(b1-4)GlcNAc", "method_in_brief": "as §1"}, "Fuc(a1-2)Gal(b1-4)Glc": {"biological_target": "Fuc(a1-2)Gal(b1-4)Glc", "method_in_brief": "as §1"}, "Fuc(a1-2)Gal(b1-4)Glc6S": {"biological_target": "Fuc(a1-2)Gal(b1-4)Glc6S", "method_in_brief": "as §1"}, "Fuc(a1-2)Gal(b1-4)GlcNAc": {"biological_target": "Fuc(a1-2)Gal(b1-4)GlcNAc", "method_in_brief": "as §1"}, "[20]": {"biological_target": "Fuc(a1-2)Gal(b1-4)GlcNAc(b1-2)Man", "method_in_brief": "as §1"}, "[21]": {"biological_target": "Fuc(a1-2)Gal(b1-4)GlcNAc(b1-2)Man(a1-3)[Fuc(a1-2)Gal(b1-4)GlcNAc(b1-2)Man(a1-6)]Man(b1-4)GlcNAc(b1-4)GlcNAc", "method_in_brief": "as §1"}, "[22]": {"biological_target": "Fuc(a1-2)Gal(b1-4)GlcNAc(b1-2)Man(a1-3)[Fuc(a1-2)Gal(b1-4)GlcNAc(b1-2)Man(a1-6)]Man(b1-4)GlcNAc(b1-4)[Fuc(a1-6)]GlcNAc", "method_in_brief": "as §1"}, "[23]": {"biological_target": "Fuc(a1-2)Gal(b1-4)GlcNAc(b1-2)[Fuc(a1-2)Gal(b1-4)GlcNAc(b1-4)]Man(a1-3)[Fuc(a1-2)Gal(b1-4)GlcNAc(b1-2)Man(a1-6)]Man(b1-4)GlcNAc(b1-4)GlcNAc", "method_in_brief": "as §1"}, "[24]": {"biological_target": "Fuc(a1-2)Gal(b1-4)GlcNAc(b1-3)Gal(b1-4)GlcNAc", "method_in_brief": "as §1"}, "[25]": {"biological_target": "Fuc(a1-2)Gal(b1-4)GlcNAc(b1-3)Gal(b1-4)GlcNAc(b1-2)Man(a1-3)[Fuc(a1-2)Gal(b1-4)GlcNAc(b1-3)Gal(b1-4)GlcNAc(b1-2)Man(a1-6)]Man(b1-4)GlcNAc(b1-4)GlcNAc", "method_in_brief": "as §1"}, "[26]": {"biological_target": "Fuc(a1-2)Gal(b1-4)GlcNAc(b1-3)Gal(b1-4)GlcNAc(b1-3)Gal(b1-4)GlcNAc", "method_in_brief": "as §1"}, "[27]": {"biological_target": "Fuc(a1-2)Gal(b1-4)GlcNAc(b1-3)GalNAc", "method_in_brief": "as §1"}, "[28]": {"biological_target": "Fuc(a1-2)Gal(b1-4)GlcNAc(b1-3)[Fuc(a1-2)Gal(b1-4)GlcNAc(b1-6)]GalNAc", "method_in_brief": "as §1"}, "[29]": {"biological_target": "Fuc(a1-2)Gal(b1-4)GlcNAc(b1-3)[Fuc(a1-3)[Gal(b1-4)]GlcNAc(b1-6)]Gal(b1-4)Glc", "method_in_brief": "as §1"}, "[30]": {"biological_target": "Fuc(a1-2)Gal(b1-4)GlcNAc(b1-6)GalNAc", "method_in_brief": "as §1"}, "[31]": {"biological_target": "Fuc(a1-2)Gal(b1-4)GlcNAc6S", "method_in_brief": "as §1"}}, "note": "The other results are listed elsewhere or left out.", "data": [{"binder": "Gal 8 (Homo sapiens) (protein) MLSLNNLQNIIYNPVIPYVGTIPDQLDPGTLIVICGHVPSDADRFQVDLQNGSSVKPRADVAFHFNPRFKRAGCIVCNTLINEKWGREEITYDTPFKREKSFEIVIMVLKDKFQVAVNGKHTLLYGHRIGPEKIDTLGIYGKVNIHSIGFSFSSDLQSTQASSLELTEISRENVPKSGTPQLQTVSPSWDLQGHGSETFCSVLWTRVFLEIAFCRPIGLTVASFQSLPFAARLNTPMGPGRTVVVKGEVNANAKSFNVDLLAGKSKDIALHLNPRLNIKAFVRNSFLQESWGEEERNITSFPFSPGMYFEMIIYCDVREFKVAVNGVHSLEYKHRFKELSSIDTLEINGDIHLLEVRSW", "values": [{"measurement": "glycan array binding signal (z-score)", "setting": "Fuc(a1-2)Gal", "result": -0.306}, {"measurement": "glycan array binding signal (z-score)", "setting": "Fuc(a1-2)Gal(b1-3)GalNAc", "result": -0.36}, {"measurement": "glycan array binding signal (z-score)", "setting": "[1]", "result": 0.572}, {"measurement": "glycan array binding signal (z-score)", "setting": "[2]", "result": 0.761}, {"measurement": "glycan array binding signal (z-score)", "setting": "[3]", "result": -0.38}, {"measurement": "glycan array binding signal (z-score)", "setting": "[4]", "result": -0.275}, {"measurement": "glycan array binding signal (z-score)", "setting": "[5]", "result": -0.337}, {"measurement": "glycan array binding signal (z-score)", "setting": "Fuc(a1-2)Gal(b1-3)GlcNAc", "result": -0.113}, {"measurement": "glycan array binding signal (z-score)", "setting": "[6]", "result": -0.193}, {"measurement": "glycan array binding signal (z-score)", "setting": "[7]", "result": -0.329}, {"measurement": "glycan array binding signal (z-score)", "setting": "[8]", "result": 0.458}, {"measurement": "glycan array binding signal (z-score)", "setting": "[9]", "result": -0.354}, {"measurement": "glycan array binding signal (z-score)", "setting": "[10]", "result": -0.345}, {"measurement": "glycan array binding signal (z-score)", "setting": "[11]", "result": 0.003}, {"measurement": "glycan array binding signal (z-score)", "setting": "[12]", "result": -0.212}, {"measurement": "glycan array binding signal (z-score)", "setting": "[13]", "result": 0.566}, {"measurement": "glycan array binding signal (z-score)", "setting": "[14]", "result": -0.398}, {"measurement": "glycan array binding signal (z-score)", "setting": "[15]", "result": -0.353}, {"measurement": "glycan array binding signal (z-score)", "setting": "[16]", "result": -0.354}, {"measurement": "glycan array binding signal (z-score)", "setting": "[17]", "result": -0.357}, {"measurement": "glycan array binding signal (z-score)", "setting": "[18]", "result": -0.355}, {"measurement": "glycan array binding signal (z-score)", "setting": "[19]", "result": -0.354}, {"measurement": "glycan array binding signal (z-score)", "setting": "Fuc(a1-2)Gal(b1-4)Glc", "result": 0.044}, {"measurement": "glycan array binding signal (z-score)", "setting": "Fuc(a1-2)Gal(b1-4)Glc6S", "result": 0.255}, {"measurement": "glycan array binding signal (z-score)", "setting": "Fuc(a1-2)Gal(b1-4)GlcNAc", "result": -0.363}, {"measurement": "glycan array binding signal (z-score)", "setting": "[20]", "result": -0.357}, {"measurement": "glycan array binding signal (z-score)", "setting": "[21]", "result": -0.18}, {"measurement": "glycan array binding signal (z-score)", "setting": "[22]", "result": -0.339}, {"measurement": "glycan array binding signal (z-score)", "setting": "[23]", "result": -0.269}, {"measurement": "glycan array binding signal (z-score)", "setting": "[24]", "result": -0.084}, {"measurement": "glycan array binding signal (z-score)", "setting": "[25]", "result": 0.231}, {"measurement": "glycan array binding signal (z-score)", "setting": "[26]", "result": 0.132}, {"measurement": "glycan array binding signal (z-score)", "setting": "[27]", "result": -0.356}, {"measurement": "glycan array binding signal (z-score)", "setting": "[28]", "result": -0.351}, {"measurement": "glycan array binding signal (z-score)", "setting": "[29]", "result": -0.234}, {"measurement": "glycan array binding signal (z-score)", "setting": "[30]", "result": -0.353}, {"measurement": "glycan array binding signal (z-score)", "setting": "[31]", "result": -0.21}]}]}
